Source: paper PMC9911399, “Two distinct binding modes provide the RNA-binding protein RbFox with extraordinary sequence specificity”
Substitutions are numbered along the chain they refer to; changes in the protein carry UniProt numbers. This is one part of the list.

T1: RBFOX1 RRM (Homo sapiens, UniProt Q9NWB1 109-208)
T1 sequence: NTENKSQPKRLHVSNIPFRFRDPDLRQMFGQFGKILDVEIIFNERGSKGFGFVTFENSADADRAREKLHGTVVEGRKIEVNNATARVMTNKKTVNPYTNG

B1: CCCGAGC (DNA:RNA)
RNA: GGGAGACCGGAAUUCAGAUUGUCCCCCGAGCUUAAAUCCCGUCGUAGCCACCA
DNA 1: CAATCTGAATTCCGGTCTCCC
DNA 2: TGGTGGCTACGACGGGATT
B2: UAAGGGU (DNA:RNA)
RNA: B1 RNA with C25U, C26A, C27A, A29G, C31U
DNA 1: CAATCTGAATTCCGGTCTCCC
DNA 2: TGGTGGCTACGACGGGATT
B3: GGACUCA (DNA:RNA)
RNA: GGGAGACCGGAAUUCAGAUUGUCCGGACUCAUUAAAUCCCGUCGUAGCCACCA
DNA 1: CAATCTGAATTCCGGTCTCCC
DNA 2: TGGTGGCTACGACGGGATT
B4: GCCGGCC (DNA:RNA)
RNA: B1 RNA with C25G, A29G, G30C
DNA 1: CAATCTGAATTCCGGTCTCCC
DNA 2: TGGTGGCTACGACGGGATT
B5: CACCUAA (DNA:RNA)
RNA: B3 RNA with G25C, G26A, A27C, C30A
DNA 1: CAATCTGAATTCCGGTCTCCC
DNA 2: TGGTGGCTACGACGGGATT
B6: CUGUCAC (DNA:RNA)
RNA: B1 RNA with C26U, C27G, G28U, A29C, G30A
DNA 1: CAATCTGAATTCCGGTCTCCC
DNA 2: TGGTGGCTACGACGGGATT
B7: GGCAUAU (DNA:RNA)
RNA: B3 RNA with A27C, C28A, C30A, A31U
DNA 1: CAATCTGAATTCCGGTCTCCC
DNA 2: TGGTGGCTACGACGGGATT
B8: CUUGUAC (DNA:RNA)
RNA: B1 RNA with C26U, C27U, A29U, G30A
DNA 1: CAATCTGAATTCCGGTCTCCC
DNA 2: TGGTGGCTACGACGGGATT
B9: GCCAUAC (DNA:RNA)
RNA: B1 RNA with C25G, G28A, A29U, G30A
DNA 1: CAATCTGAATTCCGGTCTCCC
DNA 2: TGGTGGCTACGACGGGATT
B10: AAACGAG (DNA:RNA)
RNA: B3 RNA with G25A, G26A, U29G, C30A, A31G
DNA 1: CAATCTGAATTCCGGTCTCCC
DNA 2: TGGTGGCTACGACGGGATT
B11: AGGGGCA (DNA:RNA)
RNA: B3 RNA with G25A, A27G, C28G, U29G
DNA 1: CAATCTGAATTCCGGTCTCCC
DNA 2: TGGTGGCTACGACGGGATT
B12: CAUGGCG (DNA:RNA)
RNA: B1 RNA with C26A, C27U, A29G, G30C, C31G
DNA 1: CAATCTGAATTCCGGTCTCCC
DNA 2: TGGTGGCTACGACGGGATT
B13: UGCCCAC (DNA:RNA)
RNA: B1 RNA with C25U, C26G, G28C, A29C, G30A
DNA 1: CAATCTGAATTCCGGTCTCCC
DNA 2: TGGTGGCTACGACGGGATT
B14: CCAUCAG (DNA:RNA)
RNA: B1 RNA with C27A, G28U, A29C, G30A, C31G
DNA 1: CAATCTGAATTCCGGTCTCCC
DNA 2: TGGTGGCTACGACGGGATT
B15: UCAUAAC (DNA:RNA)
RNA: B1 RNA with C25U, C27A, G28U, G30A
DNA 1: CAATCTGAATTCCGGTCTCCC
DNA 2: TGGTGGCTACGACGGGATT
B16: UAACCAG (DNA:RNA)
RNA: B3 RNA with G25U, G26A, U29C, C30A, A31G
DNA 1: CAATCTGAATTCCGGTCTCCC
DNA 2: TGGTGGCTACGACGGGATT
B17: GGUCAAU (DNA:RNA)
RNA: B3 RNA with A27U, U29A, C30A, A31U
DNA 1: CAATCTGAATTCCGGTCTCCC
DNA 2: TGGTGGCTACGACGGGATT
B18: GAGGCGC (DNA:RNA)
RNA: B1 RNA with C25G, C26A, C27G, A29C
DNA 1: CAATCTGAATTCCGGTCTCCC
DNA 2: TGGTGGCTACGACGGGATT
B19: AACACUA (DNA:RNA)
RNA: B1 RNA with C25A, C26A, G28A, A29C, G30U, C31A
DNA 1: CAATCTGAATTCCGGTCTCCC
DNA 2: TGGTGGCTACGACGGGATT
B20: ACUGUAU (DNA:RNA)
RNA: B1 RNA with C25A, C27U, A29U, G30A, C31U
DNA 1: CAATCTGAATTCCGGTCTCCC
DNA 2: TGGTGGCTACGACGGGATT
B21: GCAAGGU (DNA:RNA)
RNA: B1 RNA with C25G, C27A, G28A, A29G, C31U
DNA 1: CAATCTGAATTCCGGTCTCCC
DNA 2: TGGTGGCTACGACGGGATT
B22: GCUGCUC (DNA:RNA)
RNA: B1 RNA with C25G, C27U, A29C, G30U
DNA 1: CAATCTGAATTCCGGTCTCCC
DNA 2: TGGTGGCTACGACGGGATT
B23: CUCGAAA (DNA:RNA)
RNA: B1 RNA with C26U, G30A, C31A
DNA 1: CAATCTGAATTCCGGTCTCCC
DNA 2: TGGTGGCTACGACGGGATT
B24: ACGCCAU (DNA:RNA)
RNA: B1 RNA with C25A, C27G, G28C, A29C, G30A, C31U
DNA 1: CAATCTGAATTCCGGTCTCCC
DNA 2: TGGTGGCTACGACGGGATT
B25: UUCGCUC (DNA:RNA)
RNA: B1 RNA with C25U, C26U, A29C, G30U
DNA 1: CAATCTGAATTCCGGTCTCCC
DNA 2: TGGTGGCTACGACGGGATT
B26: CUCGGUU (DNA:RNA)
RNA: B1 RNA with C26U, A29G, G30U, C31U
DNA 1: CAATCTGAATTCCGGTCTCCC
DNA 2: TGGTGGCTACGACGGGATT
B27: CGGCCCG (DNA:RNA)
RNA: B3 RNA with G25C, A27G, U29C, A31G
DNA 1: CAATCTGAATTCCGGTCTCCC
DNA 2: TGGTGGCTACGACGGGATT
B28: UUCUAGA (DNA:RNA)
RNA: B1 RNA with C25U, C26U, G28U, C31A
DNA 1: CAATCTGAATTCCGGTCTCCC
DNA 2: TGGTGGCTACGACGGGATT
B29: ACAUUAC (DNA:RNA)
RNA: B1 RNA with C25A, C27A, G28U, A29U, G30A
DNA 1: CAATCTGAATTCCGGTCTCCC
DNA 2: TGGTGGCTACGACGGGATT
B30: GAGGUAG (DNA:RNA)
RNA: B3 RNA with G26A, A27G, C28G, C30A, A31G
DNA 1: CAATCTGAATTCCGGTCTCCC
DNA 2: TGGTGGCTACGACGGGATT
B31: UGCGGUC (DNA:RNA)
RNA: B1 RNA with C25U, C26G, A29G, G30U
DNA 1: CAATCTGAATTCCGGTCTCCC
DNA 2: TGGTGGCTACGACGGGATT

These binders were tested against T1, RBFOX1 RRM (assay: EMSA; HiTS-Eq, 1 nM pool, 10 min; buffer printed only for the single-RNA assays: 10 mM Tris pH 7.5, 150 mM NaCl, 3.4 mM EDTA, 0.001% NP-40, 30 C). Details: tags: His6 N-terminal (pET28a); label: 5' 32P.
Outline: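 These values rest on relative association constants, computed from read-count changes of each RNA species versus the control reaction and normalised to the cognate motif. Reads came from free RNA recovered by 8% native PAGE after purified RbFox RRM (wild type or mutant) at increasing concentrations was equilibrated for 10 min in 50 µL with 1 nM of a 5′-radiolabelled pool with 7 randomized nucleotides and DNA-annealed flanks.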

Binder	binding signal
B1	0.00293 KA relative to UGCAUGU
B2	0.00357 KA relative to UGCAUGU
B3	0.00938 KA relative to UGCAUGU
B4	0.0116 KA relative to UGCAUGU
B5	0.00062 KA relative to UGCAUGU
B6	0.0113 KA relative to UGCAUGU
B7	0.00314 KA relative to UGCAUGU
B8	0.00942 KA relative to UGCAUGU
B9	0.00662 KA relative to UGCAUGU
B10	0.00397 KA relative to UGCAUGU
B11	0.0186 KA relative to UGCAUGU
B12	0.0121 KA relative to UGCAUGU
B13	0.0137 KA relative to UGCAUGU
B14	0.00445 KA relative to UGCAUGU
B15	0.00106 KA relative to UGCAUGU
B16	0.00446 KA relative to UGCAUGU

Binder	binding signal
B17	0.00248 KA relative to UGCAUGU
B18	0.0219 KA relative to UGCAUGU
B19	0.000181 KA relative to UGCAUGU
B20	0.00512 KA relative to UGCAUGU
B21	0.00853 KA relative to UGCAUGU
B22	0.0171 KA relative to UGCAUGU
B23	0.00304 KA relative to UGCAUGU
B24	0.00141 KA relative to UGCAUGU
B25	0.0157 KA relative to UGCAUGU
B26	0.0133 KA relative to UGCAUGU
B27	0.00673 KA relative to UGCAUGU
B28	0.0127 KA relative to UGCAUGU
B29	0.00108 KA relative to UGCAUGU
B30	0.0154 KA relative to UGCAUGU
B31	0.0174 KA relative to UGCAUGU
